Source: US20100150918A1 (MICROMET, published 2010)

B1: EGFR-21-63 LH × F7O HLP (bispecific antibody)
chain: DIVLTQSPASLPVSLGQRATISCRASQSVSSSTYSYIHWYQQKPGQPPKLLITYASNLESGVPARFSGSGSGTDFTLDIHPVEEDDSSTYYCQHSWEIPFTFGSGTKLEIKGGGGSGGGGSGGGGSQVQLQQSGPDLVKPGASVKMSCKASGHTFTDCVIIWVKQRAGQGLEWIGQIYPGTGRSYYNEIFKGKATLTADKSSNTVHIQLSSLTSEDSAVYFCALSTLIHGTWFSYWGQGTLVTVSSGGGGSEVQLLESGGGLVQPGGSLKLSCAASGFTFNVYAMNWVRQAPGKGLEWVARIRSKYNNYATYYADSVKKRFTISRDDSKNTAYLQMNNLKTEDTAVYYCVRHGNFGNSYISWWAYWGQGTLVTVSSGGGGSGGGGSGGGGSELVVTQEPSLTVSPGGTVTLT[about 80 residues left out here]FGGGTKLTVL
notes: also called EGFR LH × F7O HLP
B2: EGFR-21-63 LH × H1E HLP (bispecific antibody)
chain: DIVLTQSPASLPVSLGQRATISCRASQSVSSSTYSYIHWYQQKPGQPPKLLITYASNLESGVPARFSGSGSGTDFTLDIHPVEEDDSSTYYCQHSWEIPFTFGSGTKLEIKGGGGSGGGGSGGGGSQVQLQQSGPDLVKPGASVKMSCKASGHTFTDCVIIWVKQRAGQGLEWIGQIYPGTGRSYYNEIFKGKATLTADKSSNTVHIQLSSLTSEDSAVYFCALSTLIHGTWFSYWGQGTLVTVSSGGGGSEVQLLESGGGLEQPGGSLKLSCAASGFTFNSYAMNWVRQAPGKGLEWVARIRSKYNNYATYYADSVKGRFTISRDDSKNTAYLQMNNLKTEDTAVYYCVRHGNFGNSYLSFWAYWGQGTLVTVSSGGGGSGGGGSGGGGSELVVTQEPSLTVSPGGTVTLT[about 80 residues left out here]FGGGTKLTVL
notes: also called EGFR LH × H1E HLP

Biological target: T1, 1-27 CD3-Fc (human)
T1 construct: also called 27 aa huCD3E; human CD3 epsilon (aa 1-27)-Fc fusion protein
Assay: SPR (Biacore), 1-27 CD3-Fc immobilised

Binder | Kd
B1 | 1.01 µM
B2 | 2.54 µM
